This note sets out measurements from publication PMC4336329 (PLoS ONE, 2015).

Screen size: about 310,000 compounds; about 2,200 (0.71%) showed an effect of 50% or more. The effect is printed as a negative number. Some of the results follow.

The target of this assay is human ether-à-go-go-related gene (hERG) potassium channel (human, UniProt Q12809). Briefly: primary screen, population patch clamp on CHO cells stably expressing hERG.
human ether-à-go-go-related gene (hERG) potassium channel, sequence (Q12809 whole entry, looked up): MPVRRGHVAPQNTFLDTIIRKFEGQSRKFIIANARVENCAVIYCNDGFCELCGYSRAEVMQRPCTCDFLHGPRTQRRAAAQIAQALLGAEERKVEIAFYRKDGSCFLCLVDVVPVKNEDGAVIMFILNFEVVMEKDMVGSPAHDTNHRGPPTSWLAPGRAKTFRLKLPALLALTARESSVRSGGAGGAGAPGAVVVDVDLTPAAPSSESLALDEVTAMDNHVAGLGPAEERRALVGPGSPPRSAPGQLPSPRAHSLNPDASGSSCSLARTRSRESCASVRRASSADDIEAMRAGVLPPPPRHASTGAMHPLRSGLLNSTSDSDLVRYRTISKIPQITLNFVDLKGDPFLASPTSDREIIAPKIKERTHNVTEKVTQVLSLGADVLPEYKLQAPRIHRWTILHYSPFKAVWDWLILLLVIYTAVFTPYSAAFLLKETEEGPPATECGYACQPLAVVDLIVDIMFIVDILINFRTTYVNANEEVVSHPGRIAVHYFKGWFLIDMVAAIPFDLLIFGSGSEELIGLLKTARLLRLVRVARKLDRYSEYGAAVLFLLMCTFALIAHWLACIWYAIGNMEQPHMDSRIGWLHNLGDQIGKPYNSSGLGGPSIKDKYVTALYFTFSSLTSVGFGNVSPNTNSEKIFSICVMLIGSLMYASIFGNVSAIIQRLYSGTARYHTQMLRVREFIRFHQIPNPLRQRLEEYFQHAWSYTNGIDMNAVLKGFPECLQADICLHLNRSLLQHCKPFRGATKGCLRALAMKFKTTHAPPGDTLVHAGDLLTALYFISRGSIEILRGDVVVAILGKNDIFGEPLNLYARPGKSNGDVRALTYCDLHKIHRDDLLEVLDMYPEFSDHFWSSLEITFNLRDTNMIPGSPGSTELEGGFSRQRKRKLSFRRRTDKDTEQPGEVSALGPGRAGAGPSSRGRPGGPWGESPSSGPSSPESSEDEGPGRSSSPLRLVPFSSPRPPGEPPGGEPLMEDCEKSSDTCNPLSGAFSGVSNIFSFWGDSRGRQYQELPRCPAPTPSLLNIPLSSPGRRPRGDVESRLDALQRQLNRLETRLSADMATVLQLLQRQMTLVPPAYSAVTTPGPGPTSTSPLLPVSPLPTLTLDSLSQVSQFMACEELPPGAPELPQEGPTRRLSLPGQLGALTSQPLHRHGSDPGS
`CCN(CCO)Cc1cn[nH]c1-c1ccc(C)c(C)c1`: the “hERG current change (%, negative = inhibition) at 1uM” value came to 12.3%. The same measure for `C1CCc2c(nc3nnnn3c2NC2CCCC2)C1`: 7.83%; for `Cc1ccc(NC(=O)CNC(=O)c2cccs2)c(O)c1`: 8.28%; for `Cc1ccc(S(=O)(=O)NC(CN2CCOCC2)=NCCNS(=O)(=O)c2ccccc2)cc1`: 3.7%. The same measure for `Fc1ccc(-c2nc3ccccc3c3nc4ccccc4n23)cc1`: 7.31%; for `CC(=O)Nc1cccc(-c2nc3ccccc3s2)c1C`: 5.61%. Regarding `CCC(=O)N1N=C(c2cccs2)CC1c1ccc(OC)cc1` (stereo not shown), the “hERG current change (%, negative = inhibition) at 1uM” value is listed as 19.2%.

Consider `Cc1ccccc1C(=O)N1CCC(C(=O)N(C)CC(=O)Nc2cccc(F)c2)CC1`, for which the “hERG current change (%, negative = inhibition) at 1uM” value was 8.14%. For the molecule `CCN(CC)P(=O)(c1n(CC)cc[n+]1CC)N(CC)CC.[I-]`, the “hERG current change (%, negative = inhibition) at 1uM” value is recorded as -4.93%.

Regarding `NC(=O)COC(=O)c1cccc(S(=O)(=O)N2CCCCC2)c1`, the “hERG current change (%, negative = inhibition) at 1uM” value was found to be 1.02%. The same measure for `O=C(NCCCN1CCOCC1)c1ccccc1NS(=O)(=O)c1ccc(F)cc1`: 3.45%. The same measure for `CN1C=CC=C/C1=C(\C#N)c1nc2ccccc2[nH]1`: 4.01%; for `O=C(NNS(=O)(=O)c1cccc(Cl)c1Cl)c1cccc(S(=O)(=O)N2CCOCC2)c1`: 7.43%. For the molecule `COc1cccc(C2C3=C(CC(C)(C)CC3=O)OC(N)=C2[N+](=O)[O-])c1` (stereo not shown), the “hERG current change (%, negative = inhibition) at 1uM” value was 7.19%. The same measure for `COc1ccc(CNC(=O)[C@H](C)[C@@H]2C[C@@]2(C)[C@@H](NC(=O)OCc2ccccc2)c2ccccc2)cc1OC`: 8.8%; for `OC1COC(OCc2ccccc2)C(O)C1O` (stereo not shown): 14.7%.

In the case of `N=C(N)n1c(N)nc2ccccc2c1=O`, the “hERG current change (%, negative = inhibition) at 1uM” value worked out at 16.2%.

On to `c1ccc(N2CCN(c3nc4cc5c(cc4s3)OCO5)CC2)cc1`, for which the “hERG current change (%, negative = inhibition) at 1uM” value came to 6.09%. Under `Cc1ccc(-n2c(SCC(N)=O)nnc2-c2ccccn2)cc1` stands 6.32%; under `COc1ccc(N)cc1-n1c(C)ccc1C`, -2.58%.

As to `COc1ccc(S(=O)(=O)NC(C)CCc2ccccc2)cc1` (stereo not shown), the “hERG current change (%, negative = inhibition) at 1uM” value was 8.58%. The same measure for `COC(=O)c1c(C)[nH]c(C(=O)/C=C/c2ccccc2F)c1C`: 6.87%; for `CCn1nc(C)cc1Nc1ccccc1`: -9.86%. Consider `CN1CCN(C(=O)c2ccc(CS(=O)Cc3ccc(Cl)cc3)o2)CC1` (stereo not shown), for which the “hERG current change (%, negative = inhibition) at 1uM” value is 13.9%. Under `CCOc1ccc(CN2CCN(Cc3c[nH]c4ccccc34)CC2)cc1.O=C(O)C(=O)O` stands -85.8%; under `CCSC1=NCCN1S(=O)(=O)c1ccccc1`, 8.02%; under `CNC(=O)C(=O)Nc1cc2c3c(c1)C(C)C(=O)N3CCC2` (stereo not shown), 14.2%. The same measure for `CN(CC(=O)Nc1ccc(F)cc1)C(=O)CCc1ccccc1`: 14.1%; for `CCC(C)C(=O)Nc1nc(C)c(-c2csc(Nc3cc(OC)ccc3OC)n2)s1` (stereo not shown): 11.1%; for `O=C(O)C1CC(=O)N(c2ccc(OCc3ccc(Cl)cc3Cl)cc2)C1` (stereo not shown): -4.61%. As for `CN1CCN(C(=O)c2ccc(Oc3ccc([N+](=O)[O-])cc3)cc2)CC1`, the “hERG current change (%, negative = inhibition) at 1uM” value is -11.7%. In the case of `Cc1ccc(S(=O)(=O)N/N=C/c2ccc(O)c(O)c2)cc1[N+](=O)[O-]`, the “hERG current change (%, negative = inhibition) at 1uM” value is 6.5%.

Consider `Cc1ccc[n+](/C(C(=S)NCc2ccco2)=C(/[O-])c2ccccc2Cl)c1`, for which the “hERG current change (%, negative = inhibition) at 1uM” value was -22.6%. Turning to `CN1CCC(O)(c2ccc(Cl)cc2)C(C(=O)c2ccc(Cl)cc2)C1` (stereo not shown), the “hERG current change (%, negative = inhibition) at 1uM” value is given as -19.3%.

`O=C(COC(=O)c1cccnc1)c1ccc(Cl)cc1`: the “hERG current change (%, negative = inhibition) at 1uM” value came out at 9.62%. Under `Cc1onc(-c2ccccc2)c1C(=O)N/N=C/c1cc(Br)c(Br)o1` stands 16%; under `CS(=O)(=O)N1CCC(C(=O)Nc2cccc(Br)c2)CC1`, 6.81%; under `CN1CCN(C(=O)CN(C2CCCCC2)S(=O)(=O)c2ccc(Br)cc2)CC1`, 13.8%.

Consider `COc1cc(CO)ccc1OCC(=O)N1CCc2ccccc21`, for which the “hERG current change (%, negative = inhibition) at 1uM” value is 10.7%. The same measure for `O=C(O)Cn1cc(/C=C2\C(=O)NC(=O)N(c3ccc(F)cc3)C2=O)c2ccccc21`: 10.1%.

With `Cc1ccc2nc(Cl)c(C3CC(c4cccs4)=NN3S(C)(=O)=O)cc2c1` (stereo not shown), the “hERG current change (%, negative = inhibition) at 1uM” value is 8.28%. Under `COc1ccc(Cl)cc1C(=O)NCCN(C)C` stands 11.5%.

Regarding `COc1cc2cc(CN(CCCN3CCOCC3)C(=O)Nc3ccc(F)cc3)c(=O)[nH]c2cc1OC`, the “hERG current change (%, negative = inhibition) at 1uM” value was determined as 6.72%.

Turning to `COC(=O)Nc1cc(C(=O)c2ccc(Cl)cc2Cl)c[nH]1`, the “hERG current change (%, negative = inhibition) at 1uM” value stood at 7.21%.

For `CCOC(=O)C1=C(C)NC(C)=C(C(=O)OCC)C1c1ccc(OC)cc1`, the “hERG current change (%, negative = inhibition) at 1uM” value came to 10%.

For the molecule `CC(C)(C)C(=O)Nc1ccc(C(=O)CSc2nnc(C3CC3)n2C2CC2)cc1`, the “hERG current change (%, negative = inhibition) at 1uM” value is reported as 8.79%. The same measure for `CCOC(=O)C1CCCN(Cc2sccc2C)C1` (stereo not shown): -4%. Under `O=C(CNS(=O)(=O)c1ccccc1)OCC(=O)c1ccc(F)cc1` stands 15.5%; under `Cl.O=C(c1cc2c(s1)CCCC2)N1CCN(Cc2ccc3c(c2)OCO3)CC1`, 9.38%; under `Cc1cc(C)c(NC(=O)C2CC(=O)N(c3ccc4c(c3)OCCO4)C2)c(C)c1` (stereo not shown), 7.68%. The same measure for `Cc1cccc(Nc2nc(N)nc(CC(=O)CSc3ccc(Cl)cc3)n2)c1`: 10%; for `O=C(NCc1cccc(F)c1)C1CCC(=O)N(CCc2cccc(F)c2)C1` (stereo not shown): 4.23%. Turning to `CCOCCCNC(=S)NCCc1ccccc1`, the “hERG current change (%, negative = inhibition) at 1uM” value is 19.8%. As for `Cc1ncc(CO)c(/C=N/NC(=S)Nc2ccc(Cl)c(Cl)c2)c1O`, the “hERG current change (%, negative = inhibition) at 1uM” value is given as 9.36%.

As to `Cc1ccc(C)c(S(=O)(=O)N2CCN(C(=O)C(C)Sc3ccccc3)CC2)c1` (stereo not shown), the “hERG current change (%, negative = inhibition) at 1uM” value is listed as 9.62%. The same measure for `O=c1cc(-c2ccco2)nc(SCc2cccc(Cl)c2)[nH]1`: 14.5%; for `O=C(CN1C(=O)CC(c2ccco2)Sc2ccccc21)Nc1ccc2c(c1)OCCO2` (stereo not shown): 2.94%; for `COc1ccc(S(=O)(=O)NCCSCc2cccc(C)c2)cc1Br`: 7.76%.
